# In the supplement of paper PMC12217912:
# This is one part of the list. Sequences were assembled here from the parent chain. Inactive controls read about 0.05.
# B1: TEV protease; numbered along this chain (parent)
# chain: MGESLFKGPRDYNPISSSICHLTNESDGHTTSLYGIGFGPFIITNKHLFRRNNGTLVVQSLHGVFKVKDTTTLQQHLVDGRDMIIIRMPKDFPPFPQKLKFREPQREERICLVTTNFQTKSMSSMVSDTSCTFPSGDGIFWKHWIQTKDGQCGSPLVSTRDGFIVGIHSASNFTNTNNYFTSVPKNFMELLTNQEAQQWVSGWRLNADSVLWGGHKVFMVKPEEPFQPVKEATQL
# Variants of: B1
# Assay: raw area under fraction-flipped curve 0-4 h after induction (AUC4h, not background-subtracted), DNA-recorder readout of cleavage of the substrate (dimensionless); higher = more cleavage of the substrate by the protease variant
# Conditions: temperature: 34 °C; time window: 0-4 h after rhamnose induction
# Procedure: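 In vivo DNA recorder in E. coli TOP10(DE3) ΔrhaA at 34 °C. Each TEVp single-site mutant (parent TEVp 0) is paired with a single-site variant of the 7-mer TEVs (canonical ENLYFQ|S). The substrate sits between flexible linkers in a Bxb1-sfGFP-TEVs-SsrA fusion, so cleavage stabilises Bxb1 and speeds flipping of a recombination array, read by NGS. The value is the raw area under the fraction-flipped curve over 0-4 h after rhamnose induction (AUC4h), with ≥20 reads per time point. It is not background-subtracted; inactive controls average about 0.047.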
# 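Note: Bxb1 expression induced with 0.2% (w/v) L-rhamnose at OD600 near 0.5, cultures sampled hourly, flipped fraction per protease–substrate barcode pair counted by paired-end Illumina sequencing.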
Variant,area with substrate ENLAFQS,area with substrate ENLDFQS,area with substrate ENLFFQS,area with substrate ENLHFQS,area with substrate ENLKFQS,area with substrate ENLMFQS,area with substrate ENLNFQS,area with substrate ENLRFQS,area with substrate ENLSFQS,area with substrate ENLEFQS,area with substrate ENLGFQS,area with substrate ENLIFQS,area with substrate ENLLFQS,area with substrate ENLPFQS,area with substrate ENLQFQS,area with substrate ENLTFQS,area with substrate ENLWFQS,area with substrate ENLVFQS,area with substrate ENLCFQS
MGESLFKGPRDYNPISSSICHLTNESDGHTTSLYGIGFGPFIITNKHLFRRNNGTLVVQSLHGVFKVKDTTTLQQHLVDGRDMIIIRMPKDFPPFPQKLKFREPQREERICLVTTNFQTKSMSSMVSDTSCTFPSGDGIFWKHWIQTKDGQCGSPLVSTRDGFIVGIHSASNFTNTNNYFTSVPKNFMELLTNQEAQQWTSGWRLNADSVLWGGHKVFMVKPEEPFQPVKEATQL [V200T],0.0701,0.063,0.0637,0.074,0.0714,0.0759,0.0615,0.0659,0.0666,–,–,–,–,–,–,–,–,–,–
MGESLFKGPRDYNPISSSICHLTNESDGHTTSLYGIGFGPFIITNKHLFRRNNGTLVVQSLHGVFKVKDTTTLQQHLVDGRDMIIIRMPKDFPPFPQKLKFREPQREERICLVTTNFQTKSMSSMVSDTSCTFPSGDGIFWKHWIQTADGQCGSPLVSTRDGFIVGIHSASNFTNTNNYFTSVPKNFMELLTNQEAQQWVSGWRLNADSVLWGGHKVFMVKPEEPFQPVKEATQL [K148A],0.0661,0.107,0.0899,0.0726,0.0983,–,0.0785,0.0641,0.0463,0.0545,0.059,0.08,0.0689,0.0666,0.0467,0.0839,0.0324,–,–
MGESLFKGPRDYNPISSSICHLTNESDGHTTSLYGIGFGPFIITNKHLFRRNNGTLVVQSLHGVFKVKDTTTLQQHLVDGRDMIIIRMPKDFPPFPQKLKFREPQREERICLVTTNFQTKSMSSMVSDTSCTFPSGDGIFWKHWIQTKDGQCGSPLVSTRDGFIVGIHSASNFTNTNNYFTSVPKNFMELLTNQEAQQWVSGWRLNAESVLWGGHKVFMVKPEEPFQPVKEATQL [D208E],0.0765,–,0.0862,0.0722,0.0916,0.0785,0.0685,–,–,0.0591,0.0663,–,–,0.114,0.0617,–,–,0.0732,–
MGESLFKGPRDYNPISSSICHLTNESDGHTTSLYGIGFGPFIITNKHLFRRNNGTLVVQSLHGVFKVKDTTTLQQHLVDGRDMIIIRMPKDFPPFPQKLKFREPQREERICLVTTNFQTKSMSSMVSDTSCTFPSGDGIFWKHWIQTKDGQCGSPLVSTRDGFIVGIHSASNFTNTNNYFTSVPKNFMELLTNQEAQQWVSGWRLNADSVLWGGHKVFMVKPEEPFQPVKENTQL [A232N],0.042,0.0572,0.0887,0.0593,0.0799,0.0774,0.0715,0.1,0.0508,–,0.0654,–,–,0.0467,0.07,–,–,–,–
MGESLFKGPRDYNPISSSICHLTNESDGHTTSLYGIGFGPFIITNKHLFRRNNGTLVVQSLHGVFKVKDTTTLQQHLVDGRDMIIIRMPKDFPPFPQKLKFREPQREERICLVTTNFQTKSMSSMVSDTSCTFPSGDGIFWKHWIQTKDGQCGSPLVSTRDGFIVGIHSASNFTNTNNYFTSVPKNFMELLINQEAQQWVSGWRLNADSVLWGGHKVFMVKPEEPFQPVKEATQL [T192I],0.0606,0.0637,0.0866,0.0722,0.0722,0.0743,0.0649,0.0727,0.0591,0.0675,0.0605,0.075,0.0708,0.0607,0.0715,0.0718,0.0739,0.0746,0.0774
MGESLFKGPRDYNPISSSICHLTNESDGHTTSLYGIGFGPFIITNKHLFRRNNGTLVVQSLHGVFKVKDTTTLQQHLVDGRDMIIIRMPKDFPPFPQKLKFREPQREERICLVTTNFQTKSMSSMVSDTSCTFPSGDGIFWKHPIQTKDGQCGSPLVSTRDGFIVGIHSASNFTNTNNYFTSVPKNFMELLTNQEAQQWVSGWRLNADSVLWGGHKVFMVKPEEPFQPVKEATQL [W144P],0.0795,0.0635,0.0907,0.0839,0.0694,–,0.0613,–,0.0723,0.0738,0.0616,0.0754,0.053,0.0663,–,–,0.0633,–,–
MGESLFKGPRDYNPISSSICHLTNESDGHTTSLYGIGFGPFIITNKHLFRRNNGTLVVQSLHGVFKVKDTTTLQQHLVDGRDMIIIRMPKDFPPFPQKLKFREPQREERICLVTTNFQTKSMSSMVSDTSCTFPSGDGIFWKHWIQTKDGQCGSPLVSTRDGFIVGILSASNFTNTNNYFTSVPKNFMELLTNQEAQQWVSGWRLNADSVLWGGHKVFMVKPEEPFQPVKEATQL [H168L],0.0644,–,0.0471,0.075,–,–,0.0599,–,0.0584,–,–,–,0.0707,0.0526,0.0549,–,0.0553,–,0.0677
MGESLFKGPRDYNPISSSICHLTNESDGHTTSLYGIGFGPFIITNKHLFRRNNGTLVVQSLHGVFKVKDTTTLQQHLVDGRDMIIIRMPKDFPPFPQKLKFREPQREERICLVTTNFQTKSMSSMVSDTSCTFPSGDGIFWKHWIQTKDGQCGSPLVSTRDGFIVGIQSASNFTNTNNYFTSVPKNFMELLTNQEAQQWVSGWRLNADSVLWGGHKVFMVKPEEPFQPVKEATQL [H168Q],0.0528,0.0611,0.064,0.064,0.0575,0.0501,0.0709,0.0503,0.0614,0.0567,0.0587,–,0.0614,0.0617,0.0514,–,0.0609,0.0668,0.0462
MGESLFKGPRDYNPISSSICHLTNESDGHTTSLYGIGFGPFIITNKHLFRRNNGTLVVQSLHGVFKVKDTTTLQQHLVDGRDMIIIRMPKDFPPFPQKLKFREPQREERICHVTTNFQTKSMSSMVSDTSCTFPSGDGIFWKHWIQTKDGQCGSPLVSTRDGFIVGIHSASNFTNTNNYFTSVPKNFMELLTNQEAQQWVSGWRLNADSVLWGGHKVFMVKPEEPFQPVKEATQL [L112H],0.0574,0.0682,0.0658,0.0643,0.0652,0.0685,0.0543,0.0673,0.0535,0.0493,–,–,0.0559,0.074,0.0578,–,0.0628,0.0748,0.0575
MGESLFKGPRDYNPISSSICHLTNESDGHTTSLYGIGFGPFIITNKHLFRRNNGTLVVQSLHGVFKVKDTTTLQQHLVDGRDMIIIRMPKDFPPFPQKLKFRETQREERICLVTTNFQTKSMSSMVSDTSCTFPSGDGIFWKHWIQTKDGQCGSPLVSTRDGFIVGIHSASNFTNTNNYFTSVPKNFMELLTNQEAQQWVSGWRLNADSVLWGGHKVFMVKPEEPFQPVKEATQL [P104T],0.0557,0.0519,0.0485,–,0.0506,–,0.0902,–,–,–,–,–,0.0472,0.0629,0.0394,–,–,–,0.0379
